Data: paper PMC2854131 (PLoS ONE, 2010)

Legend:
[1] = acidic conditions (pH<2.0 for H3H)
[2] = Figure 1, earlier compound; cited from earlier work

Structure (SMILES) | stability under acidic conditions, in words [1] | water solubility, in words [2]
NCCCCn1c(-c2ccccc2)c(F)c2ccc(C(=O)c3cc(CC(=O)NO)c(-c4ccc(O)cc4)s3)cc21 [Inhibitor F4H, 2-(5-(1-(4-Aminobutyl)-3-fluoro-2-phenyl-1H-indole-6-carbonyl)-2-(4-hydroxyphenyl)thiophen-3-yl)-N-hydroxyacetamide] | stable under acidic conditions | –
NCCCCn1c(-c2ccccc2)cc2ccc(C(=O)c3cc(CC(=O)NO)c(-c4cccc(O)c4)s3)cc21 [Inhibitor H3H] | chemical instability under acidic conditions | –
NCCCCn1c(-c2ccccc2)c(F)c2ccc(C(=O)c3cc(CC(=O)NO)c(-c4cccc(N)c4)s3)cc21 [Inhibitor F3A, 2-(5-(1-(4-Aminobutyl)-3-fluoro-2-phenyl-1H-indole-6-carbonyl)-2-(3-aminophenyl)thiophen-3-yl)-N-hydroxyacetamide] | stable under acidic conditions | –
NCCCCn1c(-c2ccccc2)cc2ccc(C(=O)c3cc(CC(=O)NO)c(-c4ccccc4)s3)cc21 [APH, reference compound] | – | water insoluble
